Experimental data as given in the antibiotic and cytotoxicity screens of Wong et al. (2023).
Some of the results follow.

Legend:
HSkMC = human skeletal muscle cells; assay: cytotoxicity call (relative viability < 0.9); details: 10 µM
HepG2 = assay: cytotoxicity call (relative viability < 0.9); details: 10 µM
S. aureus RN4220 = assay: growth inhibition call (relative growth <= 0.2); details: 50 µM

SMILES	cytotoxicity call (HSkMC)	cytotoxicity call (HepG2)	growth inhibition call (S. aureus RN4220)
C[C@H]1CN([C@@H](C)CO)C(=O)c2cccc(NC(=O)Nc3ccc(C(F)(F)F)cc3)c2O[C@@H]1CN(C)C(=O)Nc1ccc2c(c1)OCO2	active	inactive	inactive
C[C@@H]1CN([C@@H](C)CO)C(=O)c2ccccc2-c2ccccc2CO[C@H]1CN(C)C(=O)Nc1cccc(C(F)(F)F)c1	inactive	inactive	inactive
CC(C)NC(=O)N(C)C[C@@H]1Oc2c(NS(=O)(=O)c3ccc(F)cc3)cccc2C(=O)N([C@@H](C)CO)C[C@H]1C	inactive	inactive	inactive
COCC#Cc1ccc2c(c1)O[C@H](CN(C)C(=O)Nc1ccc(OC)cc1)[C@@H](C)CN([C@H](C)CO)S2(=O)=O	inactive	inactive	inactive
C[C@@H]1CN([C@@H](C)CO)C(=O)c2cc(NC(=O)C3CC3)ccc2O[C@H]1CN(C)S(=O)(=O)c1ccc(Cl)cc1	inactive	inactive	inactive
CCCCCCCCCCCCCCCCCCOCC(O)CO (centres undefined)	inactive	inactive	inactive
C[C@H](CO)N1C[C@H](C)[C@H](CN(C)S(=O)(=O)c2ccc(Cl)cc2)Oc2c(NC(=O)Nc3ccc(C(F)(F)F)cc3)cccc2C1=O	inactive	inactive	inactive
C[C@@H]1CN([C@@H](C)CO)C(=O)Cc2cc(NC(=O)Cn3cnnn3)ccc2O[C@H]1CN(C)C(=O)Nc1ccc(F)cc1	inactive	inactive	inactive
C[C@H](CO)N1C[C@H](C)[C@@H](CN(C)C(=O)C2CCCCC2)OCCCC[C@H](C)Oc2ccc(NC(=O)Nc3cccc4ccccc34)cc2C1=O	inactive	inactive	inactive
C[C@@H]1CCCCO[C@H](CN(C)Cc2ccc(Cl)c(Cl)c2)[C@@H](C)CN([C@@H](C)CO)C(=O)c2cc(NC(=O)NC3CCCCC3)ccc2O1	active	inactive	inactive
C[C@@H]1CCCCO[C@@H](CN(C)Cc2ccccc2)[C@H](C)CN([C@H](C)CO)C(=O)c2cc(NC(=O)Nc3ccc(C(F)(F)F)cc3)ccc2O1	inactive	active	inactive
COc1ccccc1CNC(=O)C[C@H]1C[C@H]2c3cc(NC(=O)NC4CCCC4)ccc3O[C@H]2[C@H](CO)O1	inactive	inactive	inactive
C[C@H]1CNC(=O)[C@@H](CC(=O)N(CCOC(=O)NCCCCCC(=O)NO)Cc2ccccc2)C/C=C/CC[C@H](NC(=O)OC(C)(C)C)C(=O)O1	inactive	inactive	inactive
C[C@@H]1CN([C@@H](C)CO)C(=O)c2cc(NS(=O)(=O)c3ccccc3)ccc2O[C@@H](C)CCCCO[C@H]1CN(C)Cc1ccc(C(F)(F)F)cc1	inactive	inactive	inactive
CN1CCN(C(=O)C[C@H]2CC[C@H]3[C@@H](COc4ccc(NC(=O)c5cccs5)cc4C(=O)N3C)O2)CC1	inactive	inactive	inactive
Cc1noc(C)c1NC(=O)N(C)C[C@@H]1OCCCC[C@@H](C)Oc2ccc(NC(=O)Cc3ccccc3)cc2C(=O)N([C@H](C)CO)C[C@H]1C	inactive	inactive	inactive
O=C(C[C@H]1CC[C@@H]2[C@H](COC[C@H](O)CN2S(=O)(=O)c2cccc(Cl)c2)O1)NCc1ccc2c(c1)OCO2	inactive	inactive	inactive
C[C@@H]1CCCCO[C@H](CN(C)C(=O)C2CCCCC2)[C@H](C)CN([C@H](C)CO)C(=O)c2cc(NC(=O)c3ccncc3)ccc2O1	inactive	inactive	inactive
Cc1noc(C)c1NC(=O)N(C)C[C@@H]1OCCCC[C@@H](C)Oc2ccc(NC(=O)Nc3ccc4c(c3)OCO4)cc2C(=O)N([C@@H](C)CO)C[C@H]1C	inactive	inactive	inactive
COc1ccc(NC(=O)Nc2ccc3c(c2)CC(=O)N([C@@H](C)CO)C[C@H](C)[C@@H](CN(C)Cc2ccc(C(F)(F)F)cc2)O3)cc1	inactive	inactive	inactive
CC(C)CC#Cc1ccc2c(c1)O[C@H](CN(C)C(=O)NC1CCCC1)[C@H](C)CN([C@@H](C)CO)S2(=O)=O	inactive	inactive	inactive
CCCC(=O)Nc1ccc2c(c1)C(=O)N(C)[C@@H]1CC[C@H](CC(=O)NCCN3CCCCC3)O[C@H]1CO2	inactive	inactive	inactive
C[C@@H]1CN([C@H](C)CO)C(=O)Cc2cc(NS(=O)(=O)c3ccc(F)cc3)ccc2O[C@H]1CN(C)S(C)(=O)=O	inactive	inactive	inactive
C[C@H]1CCCCO[C@H](CN(C)Cc2ccc(C(=O)O)cc2)[C@@H](C)CN([C@@H](C)CO)C(=O)c2cc(NC(=O)Nc3ccc4c(c3)OCO4)ccc2O1	inactive	inactive	inactive
Cc1ccc(S(=O)(=O)N(C)C[C@H]2Oc3ccc(NC(=O)Nc4cccc5ccccc45)cc3CC(=O)N([C@@H](C)CO)C[C@@H]2C)cc1	inactive	inactive	inactive
OCC1OC(OC2(CCl)OC(CCl)C(O)C2O)C(O)C(O)C1Cl (centres undefined)	inactive	inactive	inactive
COC(=O)c1cccc(C(=O)OC)n1	inactive	inactive	inactive

SMILES	cytotoxicity call (HSkMC)	cytotoxicity call (HepG2)	growth inhibition call (S. aureus RN4220)
CCS(=O)(=O)N1C[C@]2(C1)CN([C@H](CO)c1[nH]c3cc(ccc3c12)OC)C(=O)Nc1c(noc1C)C	inactive	inactive	inactive
NCc1c(Cl)cccc1Cl	inactive	inactive	inactive
C[C@H](CO)N1C[C@H](C)[C@@H](CN(C)C(=O)Nc2ccccc2)Oc2ccc(NC(=O)Cn3cnnn3)cc2C1=O	inactive	inactive	inactive
O=c1[nH]c(=O)n(C2CC(O)C(CO)O2)cc1C=CBr (centres undefined)	inactive	inactive	inactive
C[C@@H]1CN([C@@H](C)CO)C(=O)c2cccc(NS(=O)(=O)c3ccccc3)c2O[C@H]1CN(C)S(=O)(=O)c1ccccc1	inactive	inactive	inactive
C[C@H](CO)N1C[C@H](C)[C@H](CN(C)Cc2ccncc2)Oc2cc(C#CC(C)(C)O)ccc2S1(=O)=O	inactive	inactive	inactive
C[C@@H]1CN([C@H](C)CO)C(=O)c2cc(NC(=O)C3CCCCC3)ccc2O[C@@H](C)CCCCO[C@H]1CN(C)S(=O)(=O)c1ccccc1	inactive	inactive	inactive
C=CCSc1n[nH]c2nc(=O)cc(N)n12	inactive	inactive	inactive
COc1ccc(NC(=O)Nc2ccc3c(c2)C(=O)N([C@H](C)CO)C[C@H](C)[C@H](CN(C)CC2CC2)OCCCC[C@@H](C)O3)cc1	inactive	inactive	inactive
C[C@H]1CCCCO[C@@H](CN(C)C)[C@@H](C)CN([C@@H](C)CO)C(=O)c2cc(NS(=O)(=O)c3cn(C)cn3)ccc2O1	inactive	inactive	inactive
C[C@H](CO)N1C[C@H](C)[C@H](CN(C)Cc2ccc(C(F)(F)F)cc2)Oc2c(NC(=O)Nc3ccc4c(c3)OCO4)cccc2C1=O	inactive	inactive	inactive
C[C@H]1CCCCO[C@@H](CN(C)Cc2ccncc2)[C@@H](C)CN([C@@H](C)CO)C(=O)c2cc(NS(=O)(=O)c3ccc(Cl)cc3)ccc2O1	inactive	inactive	inactive
CC(=O)O[C@@H]1CC[C@]2(C)[C@H]3CC[C@]4(C)C(=CC(=O)O[C@H]4c4ccoc4)[C@]3(C)[C@H](OC(C)=O)C[C@H]2C1(C)C	inactive	inactive	inactive
C[C@@H]1CN([C@@H](C)CO)C(=O)Cc2cc(NS(=O)(=O)c3cccs3)ccc2O[C@H]1CN(C)S(=O)(=O)c1cccs1	inactive	inactive	inactive
COC1=C(OC)C(=O)C(CC=C(C)CCC=C(C)CCC=C(C)CCC=C(C)CCC=C(C)CCC=C(C)CCC=C(C)CCC=C(C)CCC=C(C)CCC=C(C)C)=C(C)C1=O	inactive	inactive	inactive
C[C@H](CO)N1C[C@H](C)[C@H](CN(C)Cc2ccc(C(F)(F)F)cc2)Oc2ccc(NC(=O)CCC(F)(F)F)cc2C1=O	inactive	inactive	inactive
COc1ccccc1S(=O)(=O)N1C[C@H](O)COC[C@@H]2O[C@@H](CC(=O)O)CC[C@H]21	inactive	inactive	inactive
C[C@H](CO)N1C[C@H](C)[C@H](CN(C)S(=O)(=O)c2cn(C)cn2)Oc2cc(C#Cc3cccc(F)c3)ccc2S1(=O)=O	inactive	inactive	inactive
Cc1noc(C)c1NC(=O)Nc1ccc2c(c1)C(=O)N([C@H](C)CO)C[C@H](C)[C@@H](CN(C)S(=O)(=O)c1ccc(F)cc1)OCCCC[C@H](C)O2	inactive	inactive	inactive
C[C@H](CO)N1C[C@H](C)[C@H](CN(C)C(=O)Nc2ccc(C(F)(F)F)cc2)OCCCC[C@H](C)Oc2ccc(NC(=O)NC3CCCCC3)cc2C1=O	inactive	inactive	inactive
CNC[C@@H]1Oc2ccc(NS(=O)(=O)c3cn(C)cn3)cc2CC(=O)N([C@H](C)CO)C[C@H]1C	inactive	inactive	inactive
CCS(=O)(=O)Nc1ccc2c(c1)C(=O)N(C)C[C@@H](OC)[C@H](C)CN(C(=O)c1ccc3c(c1)OCO3)[C@@H](C)CO2	inactive	inactive	inactive
CCCC(=O)Nc1ccc2c(c1)C(=O)N(C)C[C@@H](OC)[C@@H](C)CN(S(=O)(=O)c1cn(C)cn1)[C@H](C)CO2	inactive	inactive	inactive
C[C@H](CO)N1C[C@H](C)[C@H](CN(C)S(=O)(=O)c2ccccc2)Oc2c(NC(=O)C3CCOCC3)cccc2C1=O	inactive	inactive	inactive
C[C@H]1CN([C@@H](C)CO)C(=O)Cc2cc(NC(=O)Nc3ccc4c(c3)OCO4)ccc2O[C@H]1CN(C)Cc1ccc(Cl)c(Cl)c1	active	active	inactive
COc1ccc(NC(=O)Nc2ccc3c(c2)C(=O)N([C@@H](C)CO)C[C@@H](C)[C@@H](CN(C)CC2CCCCC2)O3)cc1	inactive	inactive	inactive
